Measured values published in the antibiotic and cytotoxicity screens of Wong et al. (2023).
The other results are listed elsewhere or left out.

Each compound was assayed on HepG2 (assay: cytotoxicity call (relative viability < 0.9)). Details: 10 µM.

| Structure (SMILES) | cytotoxicity call |
| --- | --- |
| C[C@@H]1CN([C@H](C)CO)C(=O)c2cc(NC(=O)Nc3cccc4ccccc34)ccc2O[C@@H]1CN(C)CC1CCCCC1 | active |
| C[C@@H]1CCCCO[C@@H](CN(C)C(=O)Cc2ccccc2)[C@@H](C)CN([C@H](C)CO)C(=O)c2cc(NC(=O)Cc3ccccc3)ccc2O1 | inactive |
| O=C(CCCCCCC(=O)N/N=C/[C@H](O)[C@@H](O)[C@H](O[C@@H]1O[C@H](CO)[C@H](O)[C@H](O)[C@H]1O)[C@H](O)CO)NO | inactive |
| COc1ccc(CN(C)C[C@H]2OCCCC[C@H](C)Oc3ccc(NC(=O)Nc4ccc5c(c4)OCO5)cc3C(=O)N([C@H](C)CO)C[C@@H]2C)cc1 | inactive |
| O=C1c2ccccc2C(=O)c2c(NCCNCCO)ccc(NCCNCCO)c21 | active |
| CC(C)CN1C(=O)C[C@@H](N2CCOCC2)C1=O | inactive |
| Cc1noc(C)c1NC(=O)N(C)C[C@H]1Oc2ccc(NC(=O)CCCN(C)C)cc2C(=O)N([C@@H](C)CO)C[C@H]1C | inactive |
| C[C@@H]1CCCCO[C@@H](CN(C)C(=O)Nc2ccc(F)cc2)[C@@H](C)CN([C@H](C)CO)C(=O)c2cc(NC(=O)Nc3ccc(F)cc3)ccc2O1 | inactive |
| CCS(=O)(=O)N1CCOC[C@]2(CN(c3cnn(C)c3)C(=O)CO2)C1 | inactive |
| CC(C)NCC(O)c1ccc(O)c(O)c1.Cl (configuration not stated) | active |
| Cc1ccc(S(=O)(=O)Nc2ccc3c(c2)C(=O)N([C@@H](C)CO)C[C@H](C)[C@H](CN(C)C(=O)Nc2ccccc2)OCCCC[C@H](C)O3)cc1 | inactive |
| Cc1noc(C)c1S(=O)(=O)N(C)C[C@H]1OCCCC[C@@H](C)Oc2ccc(N(C)C)cc2C(=O)N([C@@H](C)CO)C[C@@H]1C | inactive |
